Measured values from PubChem BioAssay AID624296 (National Center for Advancing Translational Sciences (NCATS), 2012).
The campaign covered roughly 350,000 compounds. About 9,900 (2.8%) were called active. This list was built around the results that the source calls inconclusive (neither active nor inactive); the mix of calls is not that of the screen. Calls follow the shape of the dose curve; as a rule, active = well fitted activation curve with a large enough effect; inconclusive = small, poorly fitted or top-dose-only effect; inactive = no such curve, though single readings can be large or run the other way. No potency is given beside an inconclusive call; the fits are too rough.

assay: A quantitative high throughput screen for small molecules that induce DNA re-replication in MCF 10a normal breast cells.; also: nearly all actives have a fitted effect of over 50% in size; as to activity, positive = re-replication: % of control where 0% means no effect; details: MCF 10A DNA re-replication, Hoechst nuclear intensity, 48 h; activity, positive = re-replication: at 46.1 µM (top of the series)
Potency is read from the fitted curve at half-maximal effect; tags tell the direction and shape of the fitted curve.

Row | Compound | Potency | activity, positive = re-replication
1 | CCOc1cc(CNc2ncnc3nc[nH]c23)ccc1OC | inconclusive [activator, single point] | –
2 | CCOC(=O)C1=C(c2ccc(OC)cc2)OC(N)=C(C#N)C1c1cccnc1 (centres undefined) | – | inactive: 4.56%
3 | Cc1cc2ncn(/N=C/c3ccc4c(c3)OCO4)c2cc1C | inconclusive [activator, single point] | –
4 | COc1ccc(NC(=O)COC(=O)Cn2c(C)nc3ccccc32)cc1OC | inconclusive [activator, single point] | –
5 | C#CC(CC)(CC)NC(=O)Nc1ccccc1C(=O)OC | – | inactive: 8.42%
6 | O=C1CC(SC(=NCc2ccc3c(c2)OCO3)Nc2ccccc2)C(=O)N1c1ccccc1 (centres undefined) | inconclusive [activator, partial curve] | –
7 | Cc1cccc(C(=O)Nc2ccc(C(=O)N/N=C/c3ccc4c(c3)OCO4)cc2)c1 | – | inactive: 19.3%
8 | Cc1c(C(=O)NCc2ccc(F)cc2)c(-c2ccccc2)nn1-c1ccccc1 | inconclusive [activator, single point] | –
9 | CC(NC(=O)c1ccc2c(=O)n3c(nc2c1)CCCCC3)c1ccccc1 (centres undefined) | inconclusive [activator, partial curve] | –
10 | COC(=O)C1=C(C)N(c2cc(Cl)cc(Cl)c2)C(=O)C1 | – | inactive: 18%
11 | COc1ccccc1NC(=S)NCc1ccc(F)cc1 | inconclusive [activator, full curve] | –
12 | O=C1CCCC2=C1C1(CCCC1)N=C(Nc1nc3ccccc3s1)N2 | inconclusive [activator, single point] | –
13 | O=C(NCc1ccccc1)c1cccc(S(=O)(=O)NCc2ccccc2)c1 | – | inactive: -9.38%
14 | Cc1sc(NC(=O)CSc2nnc(-c3ccccc3)o2)c(C#N)c1C | inconclusive [activator, single point] | –
15 | NC(=O)CC(NC(=O)c1ccc(Br)cc1)c1ccc(NC2CCCCC2)c([N+](=O)[O-])c1 (centres undefined) | inconclusive [activator, partial curve, poor fit] | –
16 | O=[N+]([O-])c1ccccc1S(=O)(=O)N1CCCc2ccccc21 | inconclusive [activator, single point] | –
17 | CCN(CC)c1ccc(/C=N/N2CCN(Cc3ccccc3Cl)CC2)c(O)c1 | inconclusive [activator, partial curve, poor fit] | –
18 | CCCCN(C)CCCNC(=O)CN1C(=O)COc2ccc(S(=O)(=O)N3CCOCC3)cc21 | – | inactive: -3.5%
19 | O=C(NNc1ccccc1F)c1ccccc1 | inconclusive [activator, single point] | –
20 | O=C(N1CCOCC1)N1CCC(NC(=O)C23CC4CC(CC(C4)C2)C3)CC1 | inconclusive [activator, single point] | –
21 | COCCNC(=O)C(=O)c1c(-c2ccccc2)[nH]c2ccccc12 | – | inactive: -8.13%
22 | CCOc1ccc(S(=O)(=O)N(CC(=O)N2CCc3ccccc32)Cc2ccco2)cc1 | – | inactive: -1.87%
23 | CC(NC(c1ccccc1)c1ccccc1)C(=O)N1CCCc2ccccc21 (centres undefined) | inconclusive [activator, single point] | –

Row | Compound | Potency | activity, positive = re-replication
24 | Cc1nn2cc(-c3cccc(Cl)c3)cnc2c1Br | inconclusive [activator, full curve, poor fit] | –
25 | O=C1CC(N2CCN(c3ccccc3)CC2)C(=O)N1c1cccc(Cl)c1 (centres undefined) | – | inactive: -9.19%
26 | COc1c(/C=C2\SC(=Nc3ccccc3Cl)NC2=O)cccc1[N+](=O)[O-] | inconclusive [activator, single point] | –
27 | CCN1CCCC1CNC(=O)C(=O)NC(C)c1ccccc1 (centres undefined) | inconclusive [activator, partial curve] | –
28 | CCOC(=O)C1=C(CNCCc2ccc(Cl)cc2)NC(=O)NC1c1cccc([N+](=O)[O-])c1 (centres undefined) | inconclusive [activator, partial curve, poor fit] | –
29 | COc1cccc(OC(C)c2ccnc3nc(/N=C/N(C)C)nn23)c1 (centres undefined) | inconclusive [activator, single point] | –
30 | COC(=O)C1C=CC(OC2OC(COC(C)=O)C(OC(C)=O)C(OC(C)=O)C2OC(C)=O)n2c(=O)n(-c3ccccc3)c(=O)n21 (centres undefined) | active: 1.64 µM | –
31 | CC(=O)c1cccc(OCC(O)CNCCOc2ccc(C)cc2)c1 (centres undefined) | – | inactive: 8.2%
32 | O=C(c1nc2ccc(Cl)cn2c1CN1CCCC(CO)C1)N1CCc2ccccc2C1 (centres undefined) | – | inactive: 0.337%
33 | O=C(CSc1nnc(-c2cccs2)n1-c1ccccc1)Nc1ccccc1 | inconclusive [activator, partial curve] | –
34 | C[C@H](NC(=O)COc1ccc(Cl)cc1)C(=O)N1CCC2(CC1)NCCc1[nH]cnc12 | inconclusive [activator, partial curve] | –
35 | Cc1c(-c2ccccc2)c(-c2ccc(OCCN(C)C)cc2)n2ccccc12 | inconclusive [activator, single point] | –
36 | COc1ccc(CCC(=O)NCCOc2ccccc2Cl)cc1 | – | inactive: 0.71%
37 | C[C@@H]1CN([C@H](C)CO)C(=O)c2cc(NC(=O)Nc3ccc(C(F)(F)F)cc3)ccc2O[C@H]1CN(C)Cc1ccc(Cl)c(Cl)c1 | inconclusive [activator, full curve, poor fit] | –
38 | Cc1nn(CC(=O)NCCCN2CCN(C)CC2)c(=O)c2cc(-c3ccccc3)nn12 | inconclusive [activator, single point] | –
39 | Cc1cccc2cc(C(c3nnnn3Cc3ccccc3)N3CCCc4ccccc43)c(=O)[nH]c12 (centres undefined) | active: 5.17 µM | –
40 | CC1CCCN(CC(=O)Nc2ccc(S(=O)(=O)N3CCCCCC3)cc2)C1 (centres undefined) | inconclusive [activator, single point] | –
41 | O=C(CN1CCN(c2ccccc2O)CC1)NC(=O)NC1CCCC1 | inconclusive [activator, partial curve, poor fit] | –
42 | COC(=O)C1=CN(c2ccc(F)cc2)C=C(C(=O)OC)C1c1ccc(O)cc1 | – | inactive: 6.93%
43 | Cc1ccccc1NC(=O)Cc1nc(-c2ccc3ccccc3c2)cs1 | inconclusive [activator, partial curve, poor fit] | –
44 | CCOc1ccc(CCNC(=O)C2CC(=O)N(c3ccccc3OCC)C2)cc1OCC (centres undefined) | – | inactive: 0.92%
45 | COc1ccc(N2CCN(C(=O)COC(=O)CNC(=O)c3ccc(C)cc3)CC2)cc1 | – | inactive: -3.92%
46 | CCc1ccccc1NCC(=O)Nc1ccc(Cl)c(C(F)(F)F)c1 | inconclusive [activator, single point] | –

Row | Compound | Potency | activity, positive = re-replication
47 | COC(=O)C(C)Oc1cc(OC(C)C(=O)OC)c2c(-c3ccccc3)cc(=O)oc2c1 (centres undefined) | – | inactive: -1.01%
48 | Cc1onc(-c2c(F)cccc2Cl)c1C(=O)Nc1cc(S(=O)(=O)N2CCCCC2)ccc1O | inconclusive [activator, single point] | –
49 | CC(C)CCCCCCc1ccc(O)cc1 | active: 29.9 µM | –
50 | C=CCC[C@H](Cc1ccc(F)cc1)C(=O)OC[C@H](C)NC(=O)[C@H](CC=C)CC(=O)N(CCO)Cc1ccccc1 | – | inactive: -0.934%
51 | COc1ccc(C(=O)OC/C(O)=C(\C#N)c2nc3ccccc3[nH]2)cc1S(=O)(=O)N1CCOCC1 | – | inactive: 8.08%
52 | C[C@@H]1CN([C@H](C)CO)C(=O)c2cc(NC(=O)Cc3ccccc3)ccc2O[C@H]1CN(C)Cc1ccc(Oc2ccccc2)cc1 | active: 16.4 µM | –
53 | Cc1cc(-c2nnc(SCC(=O)Nc3ccc(C(F)(F)F)cc3)n2C)no1 | inconclusive [activator, partial curve, poor fit] | –
54 | COc1cc(N)c(C(O)c2nccc3cc(OC)c(OC)cc23)cc1OC (centres undefined) | inconclusive [activator, single point] | –
55 | CCN(CC)c1ccc(/C=C/c2cc(-c3ccccc3)c3ccccc3n2)cc1 | inconclusive [activator, partial curve, poor fit] | –
56 | CCOc1ccc(-n2nc3cc(C)c(N)cc3n2)cc1 | active: 18.4 µM | –
57 | Cc1ccccc1C(=O)OC1OC(=O)C(Cl)=C1Nc1ccccc1 (centres undefined) | inconclusive [activator, single point] | –
58 | COc1cc(/C=C/C(=O)c2ccc3c(c2)OCO3)cc(Cl)c1O | active: 9.2 µM | –
59 | C=CC(C)(C)c1c2occc2c(O)c2ccc(=O)oc12 | inconclusive [activator, partial curve, poor fit] | –
60 | COc1ccc(C(CNc2ccc(C(F)(F)F)cn2)N(C)C)cc1OC (centres undefined) | – | inactive: 3.56%
61 | COc1ccc(CNC(=O)COC(=O)C2=Cc3ccccc3OC2)cc1 | active: 18.4 µM | –
62 | CCn1c(=O)c2cc(C(=O)Nc3ccc(OC)cc3OC)sc2c2ccccc21 | inconclusive [activator, single point] | –
63 | Cc1nccc(-c2cccc(NC(=O)Nc3ccc(Cl)cc3)c2)n1 | – | inactive: 0.849%
64 | Cc1ccc([C@H]2C(C#N)=C(N)Oc3cc(C)oc(=O)c32)o1 | inconclusive [activator, single point] | –
65 | CCOCCCNC(=O)CN1C(=O)/C(=C\c2ccc(C)cc2)Sc2ccccc21 | inconclusive [activator, partial curve, poor fit] | –
66 | CCOC(=O)C(C(=O)OCC)C(C(=O)OCC)N1CCOCC1 (centres undefined) | inconclusive [activator, single point] | –
67 | CCn1nc(C)c(/C=N/NC(=O)Cc2ccc(Cl)cc2)c1C | – | inactive: -0.496%
68 | COc1cc2c(c(OC)c1OC)C(=O)C(=Cc1ccccc1)O2 | inconclusive [activator, partial curve, poor fit] | –
69 | CCOc1ccc(S(=O)(=O)NCc2ccc3c(c2)OCO3)cc1 | – | inactive: 15.6%
